# Source: a collection of fitness landscapes (doi:10.1126/science.1257360)
# The other results are listed elsewhere or left out.
# B1: PhoQ; a variant is named by its letters at X, in order, P23837 (parent)
# chain: MKKLLRLFFPLSLRVRFLLATAAVVLVLSLAYGMVALIGYSVSFDKTTFRLLRGESNLFYTLAKWENNKLHVELPENIDKQSPTMTLIYDENGQLLWAQRDVPWLMKMIQPDWLKSNGFHEIEADVNDTSLLLSGDHSIQQQLQEVREDDDDAEMTHSVAVNVYPATSRMPKLTIVVVDTIPVELKSSYMVWSWFIYVLSANLLLVIPLLWVAAWWSLRPIEALAKEVRELEEHNRELLNPATTRELTSLVRNLNRLLKSERERYDKYRTTLTDLTHSLKTPLXXLQXXLRSLRSEKMSVSDAEPVMLEQISRISQQIGYYLHRASMRGGTLLSRELHPVAPLLDNLTSALNKVYQRKGVNISLDISPEISFVGEQNDFVEVMGNVLDNACKYCLEFVEISARQTDEHLYIVVEDDGPGIPLSKREVIFDRGQRVDTLRPGQGVGLAVAREITEQYEGKIVAGESMLGGARMEVIFGRQHSAPKDE
# Variants of: B1
# Experiment: enrichment ratio after two sorts for PhoP signalling (ratio (wild type AVST 3.29)); higher = more functional
# Details: with PhoP (E. coli)
row,Variant,enrichment ratio
1,YEAA,≤ 0.25
2,SYAF,≤ 0.25
3,GRDL,≤ 0.25
4,LKIT,≤ 0.25
5,VHTW,≤ 0.25
6,MSEV,≤ 0.25
7,ENWL,≤ 0.25
8,WCGP,≤ 0.25
9,KFTR,≤ 0.25
10,GMIP,≤ 0.25
11,TNAI,7.87
12,ICWV,≤ 0.25
13,TNHY,≤ 0.25
14,FHAQ,≤ 0.25
15,HGYE,≤ 0.25
16,SYVR,≤ 0.25
17,TMTG,3.06
18,WVTW,≤ 0.25
19,AIWH,≤ 0.25
20,FQMS,≤ 0.25
21,FIIY,≤ 0.25

row,Variant,enrichment ratio
1,IQLY,≤ 0.25
2,VAHG,≤ 0.25
3,TLHE,≤ 0.25
4,KMKQ,≤ 0.25
5,IAMA,≤ 0.25
6,GQHA,≤ 0.25
7,WHDP,≤ 0.25
8,YTAQ,≤ 0.25
9,NTYL,≤ 0.25
10,EDCY,0.972
11,GSRS,≤ 0.25
12,DCGG,≤ 0.25
13,AKLV,16.2
14,HQFE,≤ 0.25
15,LTPY,≤ 0.25
16,YFSK,≤ 0.25
17,LENC,≤ 0.25
18,QQTV,≤ 0.25
19,VPQV,≤ 0.25
20,YVLF,2.17
21,VPQD,≤ 0.25

row,Variant,enrichment ratio
1,TFVW,≤ 0.25
2,LFCC,≤ 0.25
3,FGVH,≤ 0.25
4,HLNY,≤ 0.25
5,TDCN,15.7
6,DFPR,≤ 0.25
7,FRKT,≤ 0.25
8,WIHL,≤ 0.25
9,SKRC,≤ 0.25
10,IKPN,≤ 0.25
11,FGDW,≤ 0.25
12,YQSW,≤ 0.25
13,AETP,≤ 0.25
14,ICNY,≤ 0.25
15,YSQK,≤ 0.25
16,PPHF,≤ 0.25
17,KQKY,≤ 0.25
18,PMPY,≤ 0.25
19,ASRF,≤ 0.25
20,HVHW,≤ 0.25
21,SGHK,≤ 0.25

row,Variant,enrichment ratio
1,LHGP,≤ 0.25
2,WLIL,≤ 0.25
3,NSEV,≤ 0.25
4,YIYD,≤ 0.25
5,ILMN,≤ 0.25
6,IWYQ,≤ 0.25
7,SMLI,6.17
8,DECC,≤ 0.25
9,SQNW,≤ 0.25
10,YDRD,≤ 0.25
11,HQVW,≤ 0.25
12,TNGM,6.62
13,IAAR,≤ 0.25
14,YDHV,≤ 0.25
15,WECQ,≤ 0.25
16,ACYR,≤ 0.25
17,NAHR,≤ 0.25
18,MHAG,≤ 0.25
19,LGDQ,≤ 0.25
20,YGMF,≤ 0.25
21,KPIG,≤ 0.25
